Measurements as given in PMC5892938.
The list shows a part of the results. At the low end of the ranking the order means little.

Molecular target: GST-SBP-SLBP (stem-loop binding protein) (UniProt Q14493)
Test: targeted RNA Bind-n-Seq;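 further: DESeq read counts versus GST-SBP nonspecific binding control pulldown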
Details: RBNS binding buffer: 25 mM Tris pH 7.5, 150 mM KCl, 3 mM MgCl2, 0.1% Tween, 0.5 mg/mL BSA, 1 mM DTT; 27 nM protein, 750 pM RNA pool; temperature not stated; high values mean tight binding

Sequence | binding signal (log2 fold change)
GGUCACGUCUCAAUCAACUCCAUCGAGGGGGGGAAAACCCCUUUACCCUCAAAAUCAACAGCUCGCAGUCAAG | -0.154
GGUCACGUCUCAAUCAACUCAUCGGAGGGGGGGAAAACCCCUUUACCCUCAACAUCAACAGCUCGCAGUCAAG | 0.253
GGUCACGUCUCAAUCAACUCAUCUUCAGGAGUUUGCUCCUGCUUACUCAACAGCUCGCAGUCAAG | 0.0802
GGUCACGUCUCAAUCAACUCAUUUUCCAGGGAAACCCCUGGUAUAUUCAACAGCUCGCAGUCAAG | -0.028
GGUCACGUCUCAAUCAACUCUACUCCAGGAGUUUACUCCUGUAUACUCAACAGCUCGCAGUCAAG | -0.108
GGUCACGUCUCAAUCAACUCAAUCUCAGGAGUUUGCUCCUGCAUUUUCAACAGCUCGCAGUCAAG | 0.117
GGUCACGUCUCAAUCAACUCAUUCCCCAGGGAAACCCCUGGCAAAUUCAACAGCUCGCAGUCAAG | 0.142
GGUCACGUCUCAAUCAACUCUACGCCAGGAGUUUUCUCCUGUAAUUUCAACAGCUCGCAGUCAAG | 0.0597
GGUCACGUCUCAAUCAACUCAUUUUCAGGAGUUUUCUCCUGCUAUUUCAACAGCUCGCAGUCAAG | 0.0208
GGUCACGUCUCAAUCAACUCAAUGUCAGGAGUUUACUCCUGUUAAUUCAACAGCUCGCAGUCAAG | 0.217
GGUCACGUCUCAAUCAACUCAUUUUCAGGAGUUUCCUCCUGUAGUCUCAACAGCUCGCAGUCAAG | 0.0337
GGUCACGUCUCAAUCAACUCAGUCUCCAGGGAAACCCCUGGCAAUUUCAACAGCUCGCAGUCAAG | -0.241
GGUCACGUCUCAAUCAACUCAACGCCAGGAGUUUUCUCCUGCAAUUUCAACAGCUCGCAGUCAAG | -0.0487
GGUCACGUCUCAAUCAACUCUUUUCCAGGAGUUUACUCCUGUAUUUUCAACAGCUCGCAGUCAAG | 0.0243
GGUCACGUCUCAAUCAACUCAUCCUCAGGAGUUUCCUCCUGUUAACUCAACAGCUCGCAGUCAAG | 0.238
GGUCACGUCUCAAUCAACUCUUCCUCCAGGGAAAACCCUGGUUAUCUCAACAGCUCGCAGUCAAG | 0.0493
GGUCACGUCUCAAUCAACUCAUUCUCAGGAGUUUUCUCCUGCUUAUUCAACAGCUCGCAGUCAAG | -0.0524
GGUCACGUCUCAAUCAACUCCCUAGAGGGGGGGAAAACCCCUUUGCCCUCAAUGUCAACAGCUCGCAGUCAAG | -0.498
GGUCACGUCUCAAUCAACUCCCUCGAGGGGGGGAAAACCCCUUUACCCUCUACAUCAACAGCUCGCAGUCAAG | -0.181
GGUCACGUCUCAAUCAACUCAUCCCCCAGGGAAAUCCCUGGCAAUCUCAACAGCUCGCAGUCAAG | -0.0951
GGUCACGUCUCAAUCAACUCAGGUCCAGGAGUUUUCUCCUGCAAUUUCAACAGCUCGCAGUCAAG | 0.192
GGUCACGUCUCAAUCAACUCAAUUUCAGGAGUUUUCUCCUGUAUACUCAACAGCUCGCAGUCAAG | 0.00499
GGUCACGUCUCAAUCAACUCUCCAGAGGGGGGGAAAACCCCUUUACCCUCGUUUUCAACAGCUCGCAGUCAAG | 0.0731
GGUCACGUCUCAAUCAACUCUAUCUCCAGGGAAAACCCUGGCAUGUUCAACAGCUCGCAGUCAAG | 0.238
GGUCACGUCUCAAUCAACUCAAUUUCAGGAGUUUCCUCCUGCUAAUUCAACAGCUCGCAGUCAAG | -0.0495

Sequence | binding signal (log2 fold change)
GGUCACGUCUCAAUCAACUCUAUUCCCAGGGAAAGCCCUGGUAUUUUCAACAGCUCGCAGUCAAG | 0.387
GGUCACGUCUCAAUCAACUCGCAAGAGGGGGGGAAAACCCCUUUACCCUCAUAAUCAACAGCUCGCAGUCAAG | -0.0816
GGUCACGUCUCAAUCAACUCAUUCUCCAGGGAAAACCCUGGCAAAUUCAACAGCUCGCAGUCAAG | -0.00223
GGUCACGUCUCAAUCAACUCAAACGAGGGGGGGAAAACCCCUUUACCCUCAAAUUCAACAGCUCGCAGUCAAG | -0.207
GGUCACGUCUCAAUCAACUCUACUUCCAGGGAAAGCCCUGGUUAUCUCAACAGCUCGCAGUCAAG | 0.295
GGUCACGUCUCAAUCAACUCAUUUCCCAGGGAAACCCCUGGCAAUCUCAACAGCUCGCAGUCAAG | -0.212
GGUCACGUCUCAAUCAACUCAACUCCAGGAGUUUACUCCUGCUUUCUCAACAGCUCGCAGUCAAG | -0.171
GGUCACGUCUCAAUCAACUCUUAAGAGGGGGGGAAAACCCCUUUGCCCUCAAAUUCAACAGCUCGCAGUCAAG | -0.142
GGUCACGUCUCAAUCAACUCUAUCGCAGGAGUUUUCUCCUGGUAUCUCAACAGCUCGCAGUCAAG | 0.106
GGUCACGUCUCAAUCAACUCUUUUUCCAGGGAAAUCCCUGGCAUAUUCAACAGCUCGCAGUCAAG | 0.212
GGUCACGUCUCAAUCAACUCAUCGCCAGGAGUUUUCUCCUGUUUUUUCAACAGCUCGCAGUCAAG | -0.125
GGUCACGUCUCAAUCAACUCAGUCUCAGGAGUUUUCUCCUGCUUUCUCAACAGCUCGCAGUCAAG | -0.0208
GGUCACGUCUCAAUCAACUCAAUCUCCAGGGAAACCCCUGGUAUACUCAACAGCUCGCAGUCAAG | -0.00295
GGUCACGUCUCAAUCAACUCUCACGAGGGGGGGAAAACCCCUUUGCCCUCACUAUCAACAGCUCGCAGUCAAG | 0.0894
GGUCACGUCUCAAUCAACUCAACUCCAGGAGUUUUCUCCUGCUAACUCAACAGCUCGCAGUCAAG | 0.162
GGUCACGUCUCAAUCAACUCAUUCUCAGGAGUUUGCUCCUGCUUUCUCAACAGCUCGCAGUCAAG | 0.212
GGUCACGUCUCAAUCAACUCUUCAGAGGGGGGGAAAACCCCUUUACCCUCCCAAUCAACAGCUCGCAGUCAAG | -0.085
GGUCACGUCUCAAUCAACUCUUCUUCCAGGGAAAACCCUGGCAUUCUCAACAGCUCGCAGUCAAG | -0.155
GGUCACGUCUCAAUCAACUCAUCCUCCAGGGAAAUCCCUGGUAUUCUCAACAGCUCGCAGUCAAG | -0.0826
GGUCACGUCUCAAUCAACUCAUUCCCAGGAGUUUUCUCCUGCUAUUUCAACAGCUCGCAGUCAAG | 0.00994
GGUCACGUCUCAAUCAACUCUUCGCCCAGGGAAAUCCCUGGUUAUCUCAACAGCUCGCAGUCAAG | -0.26
GGUCACGUCUCAAUCAACUCAUCGUCAGGAGUUUCCUCCUGUAAUUUCAACAGCUCGCAGUCAAG | 0.136
GGUCACGUCUCAAUCAACUCUUUCCCCAGGGAAAACCCUGGUUUUUUCAACAGCUCGCAGUCAAG | -0.101
GGUCACGUCUCAAUCAACUCCUCGGAGGGGGGGAAAACCCCUUUACCCUCAACCUCAACAGCUCGCAGUCAAG | -0.144
GGUCACGUCUCAAUCAACUCUAUCCCAGGAGUUUCCUCCUGCUUACUCAACAGCUCGCAGUCAAG | 0.136

Sequence | binding signal (log2 fold change)
GGUCACGUCUCAAUCAACUCAUCCCCAGGAGUUUACUCCUGUUAUUUCAACAGCUCGCAGUCAAG | 0.0213
GGUCACGUCUCAAUCAACUCAUCGCCCAGGGAAAUCCCUGGUAUAUUCAACAGCUCGCAGUCAAG | 0.204
GGUCACGUCUCAAUCAACUCUUCAGAGGGGGGGAAAACCCCUUUACCCUCCACGUCAACAGCUCGCAGUCAAG | 0.12
GGUCACGUCUCAAUCAACUCAAGUCCCAGGGAAAACCCUGGUUAAUUCAACAGCUCGCAGUCAAG | -0.2
GGUCACGUCUCAAUCAACUCAAUCCCCAGGGAAAGCCCUGGUUUACUCAACAGCUCGCAGUCAAG | 0.167
GGUCACGUCUCAAUCAACUCUACUUCCAGGGAAAGCCCUGGUAUAUUCAACAGCUCGCAGUCAAG | -0.0601
GGUCACGUCUCAAUCAACUCAUCUCCAGGAGUUUACUCCUGCUAUCUCAACAGCUCGCAGUCAAG | -0.18
GGUCACGUCUCAAUCAACUCAUUCUCAGGAGUUUUCUCCUGCAAACUCAACAGCUCGCAGUCAAG | 0.0324
GGUCACGUCUCAAUCAACUCAAGUCCAGGAGUUUACUCCUGCUUUUUCAACAGCUCGCAGUCAAG | 0.0827
GGUCACGUCUCAAUCAACUCAUCUUCAGGAGUUUCCUCCUGUUUUUUCAACAGCUCGCAGUCAAG | -0.19
GGUCACGUCUCAAUCAACUCUUUUCCCAGGGAAAACCCUGGCAUACUCAACAGCUCGCAGUCAAG | 0.281
GGUCACGUCUCAAUCAACUCAAUAGAGGGGGGGAAAACCCCUUUGCCCUCAUCAUCAACAGCUCGCAGUCAAG | -0.318
GGUCACGUCUCAAUCAACUCUACUUCCAGGGAAAGCCCUGGCUUUUUCAACAGCUCGCAGUCAAG | -0.509
GGUCACGUCUCAAUCAACUCAUAAGAGGGGGGGAAAACCCCUUUGCCCUCACCUUCAACAGCUCGCAGUCAAG | -0.385
GGUCACGUCUCAAUCAACUCUACUUCAGGAGUUUGCUCCUGCAAUUUCAACAGCUCGCAGUCAAG | 0.0999
GGUCACGUCUCAAUCAACUCAUCCCCAGGAGUUUUCUCCUGCUAAGUCAACAGCUCGCAGUCAAG | 0.167
GGUCACGUCUCAAUCAACUCUUCGCCCAGGGAAAACCCUGGUAUUUUCAACAGCUCGCAGUCAAG | 0.0951
GGUCACGUCUCAAUCAACUCCAAAGAGGGGGGGAAAACCCCUUUACCCUCAUCGUCAACAGCUCGCAGUCAAG | 0.000747
GGUCACGUCUCAAUCAACUCUCUAGAGGGGGGGAAAACCCCUUUGCCCUCAACCUCAACAGCUCGCAGUCAAG | -0.23
GGUCACGUCUCAAUCAACUCAAUCGAGGGGGGGAAAACCCCUUUACCCUCUUUAUCAACAGCUCGCAGUCAAG | 0.153
GGUCACGUCUCAAUCAACUCAUCCCCAGGAGUUUACUCCUGCAUUUUCAACAGCUCGCAGUCAAG | 0.239
GGUCACGUCUCAAUCAACUCCAAAGAGGGGGGGAAAACCCCUUUACCCUCAUCCUCAACAGCUCGCAGUCAAG | -0.455
GGUCACGUCUCAAUCAACUCUUCUCCAGGAGUUUACUCCUGUUAUCUCAACAGCUCGCAGUCAAG | 0.096
GGUCACGUCUCAAUCAACUCAUUUCCCAGGGAAACCCCUGGCAUUCUCAACAGCUCGCAGUCAAG | -0.149
